The whole screen tested about 48,000 compounds, of which about 120 (0.25%) were called active. Another 4% or so got no clear call; they are omitted. Calls come from the whole dose curve; as a rule, active = well fitted activation curve with a large enough effect; inconclusive = small, poorly fitted or top-dose-only effect, or another doubt; inactive = no such curve, though single readings can be large or run the other way. The list shows a part of the results.
assay: Primary qHTS for Identification of Small Molecule Activators of Huntingtin-Antisense Promoter Activity; details: HEK293 HTT-AS promoter firefly luciferase reporter, 24 h; series mostly up to 57.5 µM; activity change, positive = activation: at the top concentration; note: nearly all actives have a fitted effect of over 55% in size
Summary of the method: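 Firefly luciferase readout (Dual-Glo, 10 min RT) after 24 h, 37 °C compound exposure (final up to 57.5 uM) of HEK293 reporter cells cultured 24 h beforehand; PTC124 at 50 uM final as control inhibitor; activity scaled vehicle 0%, zero RLU -100%.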

Row | Compound | activity change, positive = activation
1 | Cn1c(=O)c(=O)n(C)c2cc(N3CCCC3)c(NC(=O)c3ccccc3F)cc21 | inactive: -10.6%
2 | Cc1ccc2c(c1)-c1onc(C(=O)N3CCN(c4cc(Cl)ccc4C)CC3)c1CO2 | inactive: -11.7%
3 | COC(=O)c1ccccc1NC(=O)c1cc(CN2CCCC2)on1 | inactive: 4.25%
4 | CC1Cc2ccccc2N1S(=O)(=O)c1nnc(NC(=O)c2cccc(F)c2)s1 (configuration not stated) | inactive: -93.4%
5 | CCC(=O)N1CCc2cc(CNC(=O)Cc3ccc(F)cc3)ccc21 | inactive: 25.9%
6 | CCOc1ccc(-c2nnc(SCC(=O)Nc3ccc(C)cc3Cl)o2)cc1 | inactive: -74.7%
7 | Cc1ccc(NC(=O)c2cc(S(=O)(=O)NC3CCCCC3)ccc2F)cc1Cl | inactive: -28.1%
8 | CCc1nnc(SCC(=O)Nc2cc(OC)ccc2OC)nc1CC | inactive: -8.89%
9 | CCN(Cc1ccccc1)C(=O)c1cc2c(=O)[nH]c3ccc(C)cc3c2s1 | inactive: -21.9%
10 | Cc1cccc(Cn2c(COc3ccc(Cl)cc3)nc3ccccc32)c1 | inactive: -11.5%
11 | Cc1ccc(CCNC(=O)c2cc3n(n2)CCCN(Cc2ccc(C)cc2)C3=O)cc1 | inactive: -10.3%
12 | CCOc1ccc(S(=O)(=O)N(CC(=O)NCCSc2ccc(C)cc2)c2ccccc2)cc1 | inactive: -10.2%
13 | Cc1cc2n(n1)CCC(=O)N2Cc1ccc(C(=O)Nc2ccc(F)cc2F)cc1 | inactive: -16.9%
14 | COc1ccc(-c2nc3scc(CCNC(=O)c4cccc(Br)c4)n3n2)cc1 | inactive: -12.3%
15 | COc1ccc(NC(=O)c2sc3nc4c(c(-c5ccc(OC)cc5)c3c2N)C(=O)CC(C)(C)C4)cc1 | inactive: 1.43%
16 | Cc1cc(-c2ccc(S(=O)(=O)N3CCN(c4ccc(Cl)cc4)CC3)s2)on1 | inactive: -18.5%
17 | CCOC(=O)c1ccc(N2C(=O)c3[nH]nc(-c4ccc(OCC)cc4)c3C2c2cccs2)cc1 (configuration not stated) | inactive: -37.3%
18 | CCOC(=O)c1ccc(NC(=O)CC2Nc3ccccc3NC2=O)cc1 (configuration not stated) | inactive: -16.4%
19 | O=C(Nc1cc(-c2nc3cc(Cl)ccc3o2)ccc1Cl)c1cc([N+](=O)[O-])ccc1N1CCOCC1 | inactive: 5.11%
20 | Cc1ccc(-c2nnc(Nc3ccc(F)cc3)c3ccccc23)cc1S(=O)(=O)N1CCN(C)CC1 | inactive: 14.9% [at 11.5 µM, percent change from vehicle, -100% = no light]
21 | Cc1ccc(CNCc2cccn2-c2nnc(N3CCCC3)s2)cc1 | inactive: 4.61%
22 | CCOc1cccc2c1Oc1nc(-c3ccccc3)nc(SCC(=O)Nc3ccc(F)cc3)c1C2 | inactive: -0.862%
23 | O=C(c1ccccc1Cl)N1CCCCC1CCN1CCOCC1 (configuration not stated) | inactive: -3.24%

Row | Compound | activity change, positive = activation
24 | COc1ccc(OC)c(CCNC(=O)c2cnn(-c3ccc(C)cc3C)c2C2CCN(C(=O)OC(C)(C)C)CC2)c1 | inactive: -26.9%
25 | CCOC(=O)c1c(NC(=O)COc2ccc(C)cc2C(C)(C)C)sc2c1CCC(C)C2 (configuration not stated) | inactive: -8.97%
26 | Cc1c(C(=O)N2CCC(C)CC2)c(S(=O)(=O)Nc2cccc(C(F)(F)F)c2)c(C)n1C | inactive: -27.2%
27 | COc1ccc(CNC(=O)Cn2c(=O)ccc3cc(S(=O)(=O)N4CCCC4)ccc32)cc1 | inactive: -16%
28 | CC(=O)c1ccc(N2CCN(S(=O)(=O)c3cc(-c4noc(C)n4)ccc3C)CC2)cc1 | inactive: -14.3%
29 | Cc1ccc(Cn2c(CNC(=O)Cc3cccc(C)c3)nc3cccnc32)cc1 | inactive: -16%
30 | Cc1nn(S(=O)(=O)c2ccc(C(C)(C)C)cc2)c(C)c1S(=O)(=O)N1CCC(C)CC1 | inactive: -6.32%
31 | COc1ccc2[nH]cc(CCNC(=O)c3cnn(-c4ccc(C)cc4)c3C3CCN(C(=O)OC(C)(C)C)CC3)c2c1 | inactive: -33.1%
32 | COCCN1C(=O)c2oc3ccc(C)cc3c(=O)c2C12C(=O)N(C)c1ccccc12 (configuration not stated) | inactive: -12.2%
33 | CC(=O)Nc1ccc(NC(=O)C2(c3cccs3)CCOCC2)cc1 | inactive: -7.26%
34 | CC(C)N(Cc1ccccc1)C(=O)C1CCCN(c2ncnc3onc(-c4ccc(F)cc4)c23)C1 (configuration not stated) | inactive: -28.5%
35 | COc1ccccc1CNC(=O)c1cnc(SC)nc1C | inactive: -13.7%
36 | CC(=O)Nc1ccc(NC(=O)C(Cc2ccccc2)NS(=O)(=O)c2ccc3c(c2)oc(=O)n3C)cc1 (configuration not stated) | inactive: 15.8%
37 | CCOC(=O)CC(NC(=O)CCc1c(C)nc2c(c1C)c(=O)n(C)c(=O)n2C)c1ccc(OCC)c(OC)c1 (configuration not stated) | inactive: -8.97%
38 | CC(C)c1ccc(NS(=O)(=O)c2ccc3[nH]cc(C(=O)NCCc4ccccc4)c(=O)c3c2)cc1 | inactive: -19%
39 | CCOC(=O)c1cc(-c2ccc(F)cc2)n(CCC(=O)Nc2nc3ccc(OC)cc3s2)c1C | inactive: -38.7%
40 | Cc1ccc(-n2nc(C)c3c(C)cc(=O)n(CC(=O)NC(C)c4ccccc4)c32)cc1 (configuration not stated) | inactive: -1.82%
41 | CCOc1cc(-c2ccc(OC(=O)c3ccc(OC)cc3)c(OC)c2)cc(=O)c2c(C)oc(C)c12 | inactive: -24.7%
42 | CCn1nc(C)c2c(-c3ccccc3)cc(=O)n(C(C)C(=O)NCCc3ccc(OC)c(OC)c3)c21 (configuration not stated) | inactive: -22.3%
43 | CCn1cc(C(=O)O)c(=O)c2cc(F)c(N3CCNCC3)cc21 | inactive
44 | CC(C)(C)OC(=O)N1CCC(c2c(C(=O)N3CCCCC3)cnn2-c2ccccc2Cl)CC1 | inactive: -9.14%
45 | Cn1c(=O)oc2cc(S(=O)(=O)CCC(=O)NCCc3ccc(Cl)cc3)ccc21 | inactive: -3.22%
46 | COc1ccccc1OCc1nc(C#N)c(NCc2ccc(C)cc2)o1 | inactive: -13.3%

Row | Compound | activity change, positive = activation
47 | Cn1c(=O)c2sccc2n2c(CCCC(=O)NC3CCCCC3)nnc12 | inactive: -16.6%
48 | Cc1ccc(Cl)cc1N1CCN(S(=O)(=O)c2cc(Br)cc3c2N(C(=O)C2CC2)CC3)CC1 | inactive: -15.7%
49 | COc1ccc(-c2nn(-c3ccccc3)cc2C2NC(=O)NC(C)=C2C(=O)OC(C)C)cc1Cl (configuration not stated) | inactive: -46.5%
50 | COc1ccc(-c2nnc(SCC(=O)N(C)C3CCCCC3)o2)cc1OC | inactive: -7.23%
51 | CCOc1ccc(C(=O)c2oc3ccccc3c2NC(=O)c2cc(-c3ccc(Cl)cc3)on2)cc1 | inactive: -9.26%
52 | O=S(=O)(NCC(c1ccco1)S(=O)(=O)c1cccs1)c1ccc(Cl)cc1 (configuration not stated) | inactive: -16.9%
53 | CN(Cc1ccccc1)c1ncnc2c1nnn2C | inactive: 9.84%
54 | O=c1oc2c3c(ccc2c2ccccc12)OCN(Cc1ccccc1Cl)C3 | inactive: -4.04%
55 | COC(=O)c1sccc1S(=O)(=O)N(CC(=O)Nc1ccccc1F)c1ccccc1 | inactive: -13.5%
56 | Cc1ccc(CSCCC(=O)NCc2ccc(F)cc2Cl)cc1 | inactive: -20.5%
57 | CC(=O)c1cccc(NS(=O)(=O)c2cc(-c3cnc(C4CC4)o3)ccc2C)c1 | inactive: -50.3%
58 | CCc1nn(CC(=O)N(C)Cc2ccccc2)c(=O)c2cc3sccc3n12 | inactive: -28.4%
59 | CCn1cc(C(=O)NCCCOC)c(=O)c2cc(S(=O)(=O)N3CCCC3)ccc21 | inactive: 13.6% [at 11.5 µM, percent change from vehicle, -100% = no light]
60 | Cc1cccc(C(=O)n2nc(-c3cccnc3)nc2NCc2ccccc2)c1 | inactive: -4.37%
61 | Cc1ccc(C(=O)NCCc2ccc(S(N)(=O)=O)cc2)cc1-n1cnc2cccnc21 | inactive: 5.92%
62 | O=C(CCCCn1c(=O)c2ccccc2n(CC(=O)Nc2ccc(F)cc2F)c1=O)NCCc1ccccc1 | inactive: -2.38%
63 | COC(=O)c1c(NC(=O)Cc2coc3ccc(C(C)C)cc23)sc2c1CCC2 | inactive: 0%
64 | Cc1ccc(N=C2NC(=O)CC(C(=O)Nc3cc(C(F)(F)F)ccc3Cl)S2)cc1 (configuration not stated) | inactive: -25.7%
65 | O=S(=O)(c1ccc(Cl)cc1)c1nnn2c1nc(NCc1ccc3c(c1)OCO3)c1sccc12 | inactive: -5.93%
66 | Cc1ccc(N(CC(=O)Nc2cc(C)ccc2C)S(=O)(=O)c2c(C)noc2C)cc1 | inactive: -24.4%
67 | COc1cc(Cl)c(NS(=O)(=O)c2cc(-c3cc(C)no3)ccc2OC)c(OC)c1 | inactive: -35.6%
68 | CCCCN(CC)CCNC(=O)C1CCCN(c2ncnc3onc(C)c23)C1 (configuration not stated) | inactive: -6.41%
69 | COc1ccc(-n2c(SCC(=O)c3ccccc3)nc3c([nH]c4ccccc43)c2=O)cc1 | inactive: -7.83%

Row | Compound | activity change, positive = activation
70 | CCOc1ccccc1NC(=O)C1CCN(S(=O)(=O)c2ccc3c(c2)CCCN3C(C)=O)CC1 | inactive: -17.8%
71 | Cc1ccc(COC(=O)c2[nH]c3c(c2C)C(=O)CC(c2ccc(N(C)C)cc2)C3)cc1 (configuration not stated) | inactive: -5.16%
72 | CCS(=O)(=O)c1ncc(Cl)c(C(=O)Nc2ccccc2)n1 | inactive: -93.5%
73 | CCC(=O)N1c2ccccc2CC1C(=O)NCc1ccc(N(C)C)cc1 (configuration not stated) | inactive: -21.1%
74 | CC(=O)c1ccc(NC(=O)c2ccc(-n3cnnc3)cc2)cc1 | inactive: -5.56%
75 | COc1ccccc1-c1cc(C(=O)Nc2cc(OC)c(OC)c(OC)c2)no1 | inactive: -24.9%
76 | CCN(CC)CCCNC(=O)c1nn(C)c2c1CSc1ccccc1-2 | inactive: -1.98%
77 | CCN(CC)c1ccc(C(=O)NCc2ccc3c(c2)CCN3C(=O)c2ccc(F)cc2)cc1 | inactive: -7.47%
78 | Cc1ccc(-n2nc(C)c3c(C(=O)NCCc4ccccc4)cc(C)nc32)cc1 | inactive: -15.6%
79 | Cc1ccc(CNC(=O)c2ccc3c(c2)nc2n3CCOC2)cc1 | inactive: -5.53%
80 | COc1ccc(C(C)=O)cc1CSc1nc(NCCc2ccccc2)c2ccccc2n1 | inactive: 0.0818%
81 | COc1ccc(C(=O)NNc2ncnc3c2cnn3-c2cccc(Cl)c2)cc1OC | inactive: -38.6%
82 | COc1ccc(NC(=O)CCc2nc3c(C)nn(-c4ccc(C)cc4)c3n(C)c2=O)cc1 | inactive: 2.62%
83 | Cc1ccc(NC(=O)C2CCN(S(=O)(=O)c3c(C)noc3/C=C/c3cccs3)CC2)cc1F | inactive: -33.1%
84 | CCCS(=O)(=O)c1c(S(=O)(=O)CCC)c2cc(CC)ccn2c1C(=O)c1ccc(Cl)cc1 | inactive: -21.3%
85 | Cc1cccc(N(CC(=O)NCCSCc2cccc(Cl)c2)S(=O)(=O)c2ccccc2)c1C | inactive: -37.6%
86 | COc1ccc(Cl)cc1CNCCSc1nnnn1-c1ccccc1 | inactive: 4.5%
87 | COc1ccc(C2NC(=O)N(C)C3=C2C(=O)N(c2cccc(C(=O)O)c2)C3)cc1 (configuration not stated) | inactive: -45.5%
88 | CCOc1ccccc1NC(=O)CCNS(=O)(=O)c1cccc2nonc12 | inactive: -19.3%
89 | CC(C)Oc1ccc(C(=O)NCC(c2ccc(N(C)C)cc2)N2CCCC2)cc1 (configuration not stated) | inactive: 2.54%
90 | Cc1ccc(C)c(NC(=O)Cn2cc(C(=O)c3cccs3)c3ccccc32)c1 | inactive: -31.9%
91 | COc1cc(C(=O)Nc2ccc3c(c2)N(C2CCCC2)C(=O)c2ccccc2S3)cc(OC)c1OC | inactive: -20.4%
92 | CCOc1ccccc1NC(=O)C1CCCN1S(=O)(=O)c1ccc2c(c1)C(C)(C)C(=O)N2C (configuration not stated) | inactive: -27.1%

— PubChem BioAssay AID1508624 (National Center for Advancing Translational Sciences (NCATS), 2021)
